The supplement of paper PMC11417369
This is one part of the list.

system: PfSIP2 AP2 domain 1 (GST-tagged); assay: gcPBM binding intensity (ln(normalized median fluorescence intensity)); higher = stronger DNA binding
Procedure, shortened: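 GST-fused DNA-binding domains of P. falciparum, expressed in E. coli, were applied at about 25 μg on average for 1 h to an Agilent 4 × 180k array of primer-extended double-stranded 36-bp intergenic genomic probes and negative controls. Binding intensity is the highest Masliner-normalised natural-log median intensity across replicate spots of either probe orientation, measured with Alexa488 anti-GST antibody and a 488 nm scan.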

Going from “TACATTAAACGAATAGTGCAAGAAGTATTCGTATAA [GTGCAC_site9939]” to “TATAAAAATAAGTATACACACAAAATGCGTAACTTT [CACACA_site1295]”, the “gcPBM binding intensity (ln)” value falls from 7.93 to 6.72.

Going from “ATAAATACATTAAAATGTACATAAAAATATTACTGG [XGTACX_site1484]” to “AAAAAAAAAAAAAACACACACACACGCAAATACATA [CACACA_site6474]”, the “gcPBM binding intensity (ln)” value rises from 6.85 to 7.4.

First: TCCTTAAATATAAAGGTGCTATGCAGACCTTATGTT [GTGCAC_site9472]
Second: ATATAAGTACGGCATGCATGCACATTTTTTTATTCC [TGCATGCA_site101]
The “gcPBM binding intensity (ln)” value of the first is higher: 7.9 for the first, 7.09 for the second.

First: TTATAAATTCAATGTACTACACAAAATGAATTTAAT [XGTACX_site6683]
Second: TACAGACATAGACACACACACACGCATAAAAAAAAA [CACACA_site6820]
The “gcPBM binding intensity (ln)” value of the first is lower: 6.82 for the first, 7.3 for the second.

Compared with “TTCCTATAAAAAAACACACACATATAAATATAAATA [CACACA_site7154]”, “TGTGCTCGCTATTACACACTCATTGGGATAAAATTG [CACACA_site2029]” is lower in “gcPBM binding intensity (ln)” value: 7.18 for the first, 7.14 for the second.

First: TACATAAACATTTATACACACATTATATATACATAT [CACACA_site8028]
Second: TGGCTTATTCAGAAATGTACACATATAAATATATAT [XGTACX_site3765]
The “gcPBM binding intensity (ln)” value of the first is higher: 7.13 for the first, 7.11 for the second.

Going from “TTTCTTTTAATTATCCGTACACAAACAATAAAATAA [XGTACX_site7841]” to “AAAATAATATATGTATGTACACAATTATTTATAAGT [XGTACX_site7267]”, the “gcPBM binding intensity (ln)” value falls from 7.57 to 7.12.

Compared with “TGAATAAATAAGATACGTACACACATATACAAAATA [XGTACX_site7758]”, AAATAAATAAATAGAGTGCATATATATATATATTTT is higher in “gcPBM binding intensity (ln)” value: 7.06 for the first, 8.61 for the second.

Compared with “CTTTTTATTTATCATACACACACAGAAAAAAAAAAA [CACACA_site7935]”, “ATATACAAAGGATTAACACACATATTATTATAGATA [CACACA_site6966]” is lower in “gcPBM binding intensity (ln)” value: 7.34 for the first, 6.9 for the second.

Compared with “AATTTTTAGAAGAACACACACATATATATTATGACC [CACACA_site246]”, “ATTATGCACAGACACACACACACACTACTAAAAAAT [CACACA_site7252]” is higher in “gcPBM binding intensity (ln)” value: 7.18 for the first, 7.88 for the second.

First: ATAGGAGAAAAAGAATGTACGTATGATGTTGAAAAT [XGTACX_site7779]
Second: AAAAAAAATAAAAATATATATATATATATATAAATA [GTGCAC_negctrl_site676]
The “gcPBM binding intensity (ln)” value of the first is lower: 7.28 for the first, 7.39 for the second.

Compared with “AAGCATTTTTTTTAAAGCCTGTTCATCATCCTTACC [CACACA_negctrl_site129]”, “ACCGTGGGAGGACACACACACACACGCACATATATA [CACACA_site6289]” is higher in “gcPBM binding intensity (ln)” value: 6.94 for the first, 7.55 for the second.

Going from “AAATAACTTTTAAATACACACGTAAAATATATTGTG [CACACA_site9085]” to “TACATTATAAATATTACACACTTTATAAAATAATAA [CACACA_site6096]”, the “gcPBM binding intensity (ln)” value falls from 7.02 to 6.96.

First: TCCTTTTTTTTTTATGCACACACAATTATACATTCC [CACACA_site9287]
Second: ATAATATTTTTATGTACACACCTTAATCCTTAAAAG [CACACA_site5881]
The “gcPBM binding intensity (ln)” value of the first is higher: 7.84 for the first, 7.08 for the second.

Compared with “TTAACCACTAAAAGTACACACATATATACATATATA [CACACA_site3912]”, “TCTATTAATTAATATACACACATTATATATATATAT [CACACA_site8815]” is higher in “gcPBM binding intensity (ln)” value: 7.29 for the first, 9.54 for the second.

First: AATATATATATATATATATTTTTGTTAGAATATGGA [CACACA_negctrl_site212]
Second: AAATATTACATACACGCACACATTAAAATATTTAAA [CACACA_site5440]
The “gcPBM binding intensity (ln)” value of the first is higher: 7.45 for the first, 7.16 for the second.

Going from “ATGTACCTTCAAACTACACACAAATGAAGGAACACA [CACACA_site3330]” to “ATCTAATAAAAATACACACACATATGGTTTGTGAAT [CACACA_site6962]”, the “gcPBM binding intensity (ln)” value falls from 7.18 to 6.83.

Compared with “ATATAGAATGTTTACACACGCAATAAATATATATAT [CACACA_site217]”, “GCGTATCATTTTAAAACACACAGGATTTTATAAGTA [CACACA_site1225]” is lower in “gcPBM binding intensity (ln)” value: 8.65 for the first, 7.03 for the second.

Compared with “ATGGTATAAAAAAATACACACTTATTTATATTCTTA [CACACA_site6370]”, “TGTAGTCTGGAGAAGAGTACACAGTATCTGGTAGCT [XGTACX_site2036]” is lower in “gcPBM binding intensity (ln)” value: 6.84 for the first, 6.79 for the second.

First: TTAAAAAATCACAACACACACACACGCAAAAAAAAA [CACACA_site6793]
Second: AAAAATAACATATAAACACACATATAGATTTATATA [CACACA_site7738]
The “gcPBM binding intensity (ln)” value of the first is higher: 7.17 for the first, 6.83 for the second.

Compared with ACCATATAAAGTTAGGTGCATTTGTATGTATCTTAC, “TCTTGTTCGCCCTATTGTACAAACATATATTGTGAT [XGTACX_site2884]” is lower in “gcPBM binding intensity (ln)” value: 9.18 for the first, 7.42 for the second.

Compared with “TTATTTTGATCTGGTTGTACATATAATATATAGTGG [XGTACX_site357]”, “ATTAATTTGATTTTAATAAGAATATTTGTGGGGAAT [GTGCAC_negctrl_site198]” is lower in “gcPBM binding intensity (ln)” value: 7.19 for the first, 7.03 for the second.
